Cell viability data for 74 compounds are collected here from the supplement of paper PMC10600219.

Structures can show the parent of a compound that is named as a salt. Whole data set: some 2,800 compounds, median “cell viability relative to vehicle” near 1.1, cut for the lowest 2% near 0.19. The list shows a part of the results.

This test concerns NCI-H2228 parental. Kind of test: cell viability relative to vehicle (fraction of vehicle); NCI-H2228 is an ALK-positive lung cancer line and DTP means drug-tolerant persister; higher = less growth inhibition. The note with it: 100 nM; treatment time 6 days. In short, it runs like this: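 Values give cell viability as a fraction of vehicle-treated cells. Parental and drug-tolerant persister NCI-H2228 cells (persisters made with 1000 nM of a targeted drug for 13 days) were exposed in 384-well plates to the 3114-agent TargetMol anti-cancer compound library at 100 nM, with DMSO as vehicle. ATP was then read after 6 days by the CellTiter-Glo 3D Cell Viability Assay.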
Turning to `CCCCCCCCCCCCCCCCCCOP(=O)([O-])OC1CC[N+](C)(C)CC1` [Perifosine], the cell viability amounted to 1.09.

`O=C(Nc1ccc(OC(F)(F)F)cc1)c1sccc1NCc1ccnc2ccccc12`: the cell viability turned out to be 1.14.

Turning to `Cc1c(-c2ccnn2C)cc(C(=O)NCc2ccc(S(C)(=O)=O)cn2)c(=O)n1-c1cccc(C(F)(F)F)c1` [Alvelestat], the cell viability worked out at 1.12.

Take `CC(=O)c1ccc(S(=O)(=O)NC(=O)NC2CCCCC2)cc1` [Acetohexamide]: the cell viability turned out to be 1.05.

As to `CCC(N)(C(=O)O)c1ccc(C(=O)O)cc1` (centres undefined), the cell viability turned out to be 0.985.

Regarding `COc1cc(CCC(=O)CC(=O)CCc2ccc(O)c(OC)c2)ccc1O` [Tetrahydro Curcumin], the cell viability turned out to be 1.03.

Consider `COc1cc2c(Oc3ccc4[nH]c(C)cc4c3F)ccnc2cc1OCC1(N)CC1` [Anlotinib], for which the cell viability is 1.11.

Consider `COc1cc2c(Oc3ccc4[nH]c(C)cc4c3F)ccnc2cc1OCC1(N)CC1` [Anlotinib Dihydrochloride], for which the cell viability came out at 0.907.

Regarding `CC(C)(C)c1[nH]cnc1/C=c1\[nH]c(=O)/c(=C/c2ccccc2)[nH]c1=O` [Plinabulin], the cell viability was 0.29.

With `Cn1c(=O)c2nc[nH]c2n(C)c1=O` [Theophylline], the cell viability was 1.

With `CC(=O)O[C@H](CC=C(C)C)C1=CC(=O)c2c(O)ccc(O)c2C1=O` [Acetyl shikonin], the cell viability worked out at 1.05.

Regarding `COc1cc2c(cc1OC)[C@@H](Cc1ccc(Oc3cc(C[C@@H]4c5cc(OC)c(OC)cc5CCN4C)ccc3O)cc1)N(C)CC2` [Dauricine], the cell viability is 1.09.

On to `COC(=O)c1cc(O)c(O)c(O)c1` [Methyl gallate], for which the cell viability was 1.18.

As to `c1ccc(C2CN3CCSC3=N2)cc1` (centres undefined) [Tetramisole hydrochloride], the cell viability was 1.2.

`N#Cc1ccc(-c2c(-c3ncn[nH]3)sc(N3CCOCC3)c2C#N)c(F)c1`: the cell viability was found to be 0.999.

As to `NCCCC[C@H](N[C@@H](CCc1ccccc1)C(=O)O)C(=O)N1CCC[C@H]1C(=O)O` [Lisinopril dihydrate], the cell viability stood at 1.21.

For `O=C1Nc2ccc(CN3C(=O)CSC3=O)cc2/C1=C/c1cc(CN2CCOCC2)c[nH]1`, the cell viability was determined as 1.06.

Consider `CC(C)(C)NC[C@H](O)COc1nsnc1N1CCOCC1` [Timolol Maleate], for which the cell viability stood at 1.13.

Regarding `Cc1ccc(C(=O)Nc2ccc(CN3CCN(C)CC3)c(C(F)(F)F)c2)cc1C#Cc1cnc2cccnn12` [Ponatinib], the cell viability amounted to 1.19.

Regarding `CNC(=O)c1ccc(Nc2nc(OC3CCCC3)c3c(-c4ccc5nc(C)oc5c4)c[nH]c3n2)c(OC)c1`, the cell viability was found to be 0.967.

For the compound `O=C(Nc1cccc2c(=O)cc(-c3nnn[nH]3)oc12)c1ccc(OCCCCc2ccccc2)cc1` [Pranlukast], the cell viability stood at 1.1.

On to `COc1ccccc1C(=O)Nc1cc2c(cc1N1CCCCC1)n(C)c(=O)n2C`, for which the cell viability turned out to be 1.04.

As for `CO/N=C(\C(=O)N[C@@H]1C(=O)N2C(C(=O)O)=C(CSc3nc(=O)c(O)nn3C)CS[C@H]12)c1csc(N)n1` [Ceftriaxone sodium], the cell viability amounted to 1.02.

Turning to `COc1cccc(NC(=O)/C=C/c2ccc(Cl)cc2)c1`, the cell viability came out at 1.12.

Take `COc1cc(OC)c2c(=O)[nH]c(-c3cc(C)c(OCCO)c(C)c3)nc2c1` [Apabetalone]: the cell viability was found to be 1.09.

`O=C(c1cccc(Cl)c1F)N1CCN(Cc2cccc(Nc3nccs3)n2)CC1`: the cell viability was 0.531.

For `CC(C)[C@H]1C(=O)N[C@@H](CCCNC(=N)N)C(=O)NCC(=O)N[C@@H](CC(=O)O)C(=O)N[C@H](Cc2ccccc2)C(=O)N1C` [Cilengitide], the cell viability was found to be 0.875.

As to `C[C@@H]1O[C@@H](Oc2c(-c3cc(O)c(O)c(O)c3)oc3cc(O)cc(O)c3c2=O)[C@H](O)[C@H](O)[C@H]1O` [Myricetrin], the cell viability came to 1.06.

Turning to `CC1(C)Cc2c(sc(NC(=O)c3ccn[nH]3)c2C(N)=O)C(C)(C)O1`, the cell viability was 1.02.

For the compound `O=C(Nc1c[nH]nc1-c1nc2ccc(CN3CCOCC3)cc2[nH]1)NC1CC1`, the cell viability came to 0.106.

With `Cn1cc(-c2ccc(F)c(C(F)(F)F)c2)nc1C1CCN(c2ncnc3[nH]ncc23)CC1`, the cell viability turned out to be 1.04.

As for `CCOC(=O)[C@H](CCc1ccccc1)N[C@H]1CCc2ccccc2N(CC(=O)O)C1=O` [Benazepril hydrochloride], the cell viability is 1.04.

`CN(Cc1ccccc1)c1ccc2cc(C(=O)O)c(=O)oc2c1`: the cell viability came to 0.827.

With `CN1CCCC(n2nc(Cc3ccc(Cl)cc3)c3ccccc3c2=O)CC1` (centres undefined) [Azelastine hydrochloride], the cell viability was 1.05.

Regarding `COc1cc(OC)c(C=C2C(=O)Nc3ccccc32)c(OC)c1`, the cell viability was determined as 0.829.

On to `CC(C)C[C@H](NC(=O)[C@H](CCc1ccccc1)NC(=O)CN1CCOCC1)C(=O)N[C@@H](Cc1ccccc1)C(=O)N[C@@H](CC(C)C)C(=O)[C@@]1(C)CO1` [Carfilzomib], for which the cell viability was determined as 0.0349.

Take `COc1ccc(C2(CNC(=O)c3ccc(NC(=O)c4ccco4)cc3)CCOCC2)cc1`: the cell viability came to 1.06.

With `O=S(=O)(c1ccccc1)c1cnc2c(N3CCNCC3)cccc2c1`, the cell viability came to 1.09.

Consider `O=C(O[C@H]1CN2CCC1CC2)N1CCc2ccccc2[C@@H]1c1ccccc1` [Solifenacin succinate], for which the cell viability amounted to 1.25.

Take `NC(=O)N/N=C/c1ccc([N+](=O)[O-])o1` [Furacilin]: the cell viability came to 1.05.

For the compound `CN(NC(=O)CC(=O)NN(C)C(=S)c1ccccc1)C(=S)c1ccccc1` [Elesclomol], the cell viability is 0.631.

For the compound `CO[C@@H]1[C@@H](OC(N)=O)[C@@H](O)[C@H](Oc2ccc3c(O)c(NC(=O)c4ccc(O)c(CC=C(C)C)c4)c(=O)oc3c2C)OC1(C)C` [Novobiocin Sodium], the cell viability worked out at 1.1.

Turning to `CCCCc1nc2ccc(NC(=O)NC3CCCCC3)cc2n1Cc1ccc(-c2ccccc2C(=O)O)cc1`, the cell viability worked out at 1.08.

For the compound `C[C@@]1(CO)C[C@@H](O)C[C@@]2(C)[C@@H]3CC[C@](C)([C@@H](O)CO)C=C3CC[C@H]12` [Kirenol], the cell viability was found to be 1.1.

As for `C[C@@H]1C(=O)O[C@H](C)[C@H]1C[C@@H](O)[C@](C)(O)[C@H]1CC[C@@]2(O)C3=CC(=O)[C@@H]4C[C@@H](O)[C@@H](O)C[C@]4(C)[C@H]3CC[C@]12C` [Cyasterone], the cell viability worked out at 1.15.

For `C[C@H]1O[C@@H](O[C@H]2CC[C@@]3(C)[C@@H](CC[C@]4(C)[C@@H]3C=C[C@]35OC[C@@]6(CCC(C)(C)C[C@H]63)[C@@H](O)C[C@]54C)[C@]2(C)CO)[C@H](O)[C@@H](O[C@@H]2O[C@H](CO)[C@@H](O)[C@H](O)[C@H]2O)[C@H]1O` [Saikosaponin A], the cell viability came out at 1.11.

Consider `CC(C)=CCc1c(O)cc2oc3cc(O)c(O)c(CC=C(C)C)c3c(=O)c2c1O` [gamma-Mangostin], for which the cell viability was found to be 0.9.

With `N#CCC1(n2cc(-c3ncnc4[nH]ccc34)cn2)CN(C2CCN(C(=O)c3ccnc(C(F)(F)F)c3F)CC2)C1` [Itacitinib], the cell viability is 1.13.

Regarding `O=C(c1ccc(C(=O)N2CCC(N3CCCC3)CC2)c(Nc2ccccc2)c1)N1CCC(N2CCCC2)CC1`, the cell viability was 1.16.

Turning to `OC[C@H]1O[C@@H](Oc2ccc(O)cc2)[C@H](O)[C@@H](O)[C@@H]1O` [Arbutin], the cell viability was found to be 1.1.

Turning to `OCCN1CCN(CCCN2c3ccccc3Sc3ccc(Cl)cc32)CC1` [Perphenazine], the cell viability was 0.862.

Regarding `COc1ccc(C[C@@H]2c3cc(Oc4cc(C[C@@H]5c6cc(O)c(OC)cc6CCN5C)ccc4O)c(OC)cc3CCN2C)cc1` [Isoliensinine], the cell viability amounted to 1.05.

In the case of `CN(C)CCc1c[nH]c2ccc(Cn3cncn3)cc12` [Rizatriptan benzoate], the cell viability was 0.954.

As for `CCCCNNC(=O)c1ccc(Br)cc1`, the cell viability was determined as 1.07.

In the case of `Cn1ncc(Cl)c1-c1cc(C(=O)N[C@H](CN)Cc2ccc(F)c(F)c2)oc1Cl` [Uprosertib], the cell viability amounted to 0.911.

As for `Fc1ccc(-c2nc3n(c2-c2ccncc2)CCS3)cc1`, the cell viability came out at 1.23.

With `O=c1c(-c2ccc(O)cc2)coc2cc(O[C@@H]3O[C@H](CO)[C@@H](O)[C@H](O)[C@H]3O)cc(O)c12` [Genistin], the cell viability worked out at 1.1.

Consider `C[C@H](NC(=O)CCC(F)(F)F)C(=O)N[C@@H]1C(=O)N(CCO)c2ncccc2-c2ccccc21` [Crenigacestat], for which the cell viability came out at 1.05.

On to `Nc1ccc(C(=O)NCC(=O)O)cc1` [4-Aminohippuric Acid], for which the cell viability came to 1.38.

Consider `N=C(N)NC(=N)N1CCOCC1` [Moroxydine hydrochloride], for which the cell viability is 1.15.

For `O=C(Nc1ncc([N+](=O)[O-])s1)c1ccccc1O` [Tizoxanide], the cell viability came to 0.937.

For the compound `CCOC(=O)c1ccc(OCCC2CCN(c3ccc(C)nn3)CC2)cc1` [Pirodavir], the cell viability was determined as 1.04.

Regarding `CC(=O)Oc1cccc2c1C(=O)c1c(OC(C)=O)cc(C(=O)O)cc1C2=O` [Diacerein], the cell viability is 1.1.

For `CCN(CC)Cc1ccc2cc(COC(=O)Nc3ccc(C(=O)NO)cc3)ccc2c1` [Givinostat hydrochloride monohydrate], the cell viability was determined as 0.693.

`CC(C)(C#N)c1ccc(N2C(=O)OCc3cnc4ccc(-c5cnc6ccccc6c5)cc4c32)cc1`: the cell viability is 1.06.

As for `CC(C)C[C@@H](C=O)NC(=O)[C@H](CC(C)C)NC(=O)[C@H](CC(C)C)NC(=O)OCc1ccccc1`, the cell viability turned out to be 0.3.

As to `COC1=CC(c2cc3ccccc3[nH]2)=N/C1=C\c1[nH]c(C)cc1C` [Obatoclax Mesylate], the cell viability is 1.04.

On to `N[C@H]1C(O)O[C@H](CO)[C@@H](O)[C@@H]1O` (some centres undefined) [Glucosamine], for which the cell viability worked out at 1.11.

`COC(=O)C1=CO[C@@H](O[C@@H]2O[C@H](CO)[C@@H](O)[C@H](O)[C@H]2O)[C@@H]2[C@@H](C)[C@@H](O)C[C@H]12` [Loganin]: the cell viability came out at 1.06.

Regarding `Cc1ccc(S(=O)(=O)NC(=O)NN2CC3CCCC3C2)cc1` (centres undefined) [Gliclazide], the cell viability came to 1.28.

In the case of `COc1ccc(-c2cc(=O)c3c(O)cc(O)cc3o2)cc1` [Acacetin], the cell viability came to 1.08.

Consider `O=c1c(O)c(-c2cc(O)c(O)c(O)c2)oc2cc(O)cc(O)c12` [Myricetin], for which the cell viability came out at 1.23.

`OC[C@@H](O)[C@@H](O)[C@@H](O)[C@@H](O)CO` [Allitol]: the cell viability came out at 1.13.

For the compound `CCn1c(=Cc2cccc[n+]2CC)sc(=C2Sc3ccccc3N2C)c1=O`, the cell viability turned out to be 1.04.
